# Data as given in the supplement of paper PMC3334620.
# The full ranking holds about 33,000 sequences; the median of “E-score (-0.5 to 0.5)” is about -0.035, and the highest 2% start at about 0.35. Some of the results follow.
# Target: T1, Pdr3 (UniProt P33200)
# T1 sequence: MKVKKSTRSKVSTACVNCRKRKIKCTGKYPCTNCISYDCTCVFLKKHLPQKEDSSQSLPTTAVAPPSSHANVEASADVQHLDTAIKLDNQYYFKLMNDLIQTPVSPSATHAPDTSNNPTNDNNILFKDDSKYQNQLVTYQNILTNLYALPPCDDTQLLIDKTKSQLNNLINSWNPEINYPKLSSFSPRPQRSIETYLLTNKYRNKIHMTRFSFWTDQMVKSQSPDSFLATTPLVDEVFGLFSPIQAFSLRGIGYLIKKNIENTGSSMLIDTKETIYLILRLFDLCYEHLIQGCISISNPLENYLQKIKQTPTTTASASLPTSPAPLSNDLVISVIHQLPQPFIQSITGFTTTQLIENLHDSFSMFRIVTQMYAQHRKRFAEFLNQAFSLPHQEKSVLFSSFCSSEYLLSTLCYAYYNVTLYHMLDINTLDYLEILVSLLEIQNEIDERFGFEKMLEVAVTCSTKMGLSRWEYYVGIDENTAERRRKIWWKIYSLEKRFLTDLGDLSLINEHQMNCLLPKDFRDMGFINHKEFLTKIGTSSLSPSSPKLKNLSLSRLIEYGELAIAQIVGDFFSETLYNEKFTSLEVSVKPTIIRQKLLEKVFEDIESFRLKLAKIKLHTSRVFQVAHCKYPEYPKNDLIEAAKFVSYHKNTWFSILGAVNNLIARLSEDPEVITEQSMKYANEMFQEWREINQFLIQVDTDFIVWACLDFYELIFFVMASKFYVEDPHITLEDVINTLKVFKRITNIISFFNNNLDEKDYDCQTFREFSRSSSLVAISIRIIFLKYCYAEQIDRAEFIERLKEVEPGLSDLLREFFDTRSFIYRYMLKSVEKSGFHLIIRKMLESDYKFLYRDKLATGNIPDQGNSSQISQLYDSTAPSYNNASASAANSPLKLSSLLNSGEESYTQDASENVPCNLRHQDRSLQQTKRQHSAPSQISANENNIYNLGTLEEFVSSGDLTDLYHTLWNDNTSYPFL
# Assay: PBM E-score (8-mer binding enrichment) (E-score (-0.5 to 0.5)); higher = stronger / more preferred TF binding; most listed sequences are background and not binding sites
# Details: protein concentration: 200 nM; construct: GST-full length
# Outline: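 Masliner-normalised scans of fluorescent anti-GST signal were the basis for scoring. That signal came from GST-tagged yeast transcription factors applied at about 100-200 nM to double-stranded universal all-10-mer Agilent arrays on fresh or once-stripped slides. Each ungapped eight-base word, pooled with its reverse complement, received an E-score from the Universal PBM Analysis Suite.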
row,Sequence,PBM E-score
1,ATATTGCA,0.0521
2,TAGCCAAA,0.011
3,TGACCCAA,-0.125
4,CTCTAGTC,-0.224
5,AATAGTAG,-0.00984
6,AAAGTACG,-0.0945
7,GTCATACA,-0.141
8,GTTTGATA,0.121
9,CGCAATTA,0.185
10,ACAAAGCT,0.0501
11,AGCCCTGG,-0.169
12,GGCCCTCA,-0.125
13,GCCACTAC,-0.0549
14,ACACATTA,-0.0668
15,ACGCATAA,-0.104
16,AAACTGGC,-0.0559
17,ATCAGAAC,-0.0723
18,AGGGGGTA,-0.346
19,AGCTGGCA,-0.0705
20,CCTTGCGA,0.0345
21,GGCACGTA,-0.0982
22,AGTCGGAG,0.134
23,GCAACGGC,0.152
24,ATACGGGG,0.047
25,CTTTCGAC,-0.112

row,Sequence,PBM E-score
1,GAGCCATA,-0.117
2,AAACCATA,-0.0435
3,AAGAGCAC,-0.102
4,CCACGCGA,-0.0519
5,AAGATGAG,-0.341
6,GAGCTAGC,-0.119
7,CTCGCTAC,-0.0291
8,GATAGTGA,-0.0683
9,CCAAGGGG,-0.0916
10,ACAGTCAG,-0.119
11,ACAATTAA,0.0595
12,CACCAACC,0.0571
13,CACACTGG,-0.167
14,AGAAGCGA,-0.0702
15,CAATCAGA,-0.223
16,CGTGTCGC,0.169
17,AACACTTA,-0.0344
18,CATGGATA,-0.0821
19,GCGAAAAC,-0.115
20,CGTTAACA,-0.161
21,CGGGAGTC,0.113
22,ATAACAGG,-0.267
23,AATAACGT,-0.00983
24,ACTGTTAT,-0.0454
25,AAGTAACT,0.0927

row,Sequence,PBM E-score
1,ATCTGCAT,0.0129
2,CCAGCCGG,0.261
3,TCAGTGGA,-0.116
4,ACAAACGA,0.00467
5,AGTGATAG,-0.175
6,TGCACGAA,-0.185
7,TCAAAAAA,0.0745
8,ATCGCGAA,0.283
9,AAGGCGAT,-0.153
10,CTGGGCGA,-0.0711
11,ATCGACCG,0.0883
12,CGAGTTGC,0.0466
13,GCCTCACA,-0.114
14,CGAAATCA,0.0981
15,CGAGAAGA,-0.0273
16,CACTGAGG,-0.0522
17,CCAGAATC,0.0384
18,GCTCTAAC,-0.183
19,ATTCTGAC,-0.0174
20,ATGTGAAG,-0.0856
21,TGTAGTAA,-0.016
22,AATTGAAA,-0.0894
23,CATCATTC,0.108
24,GATAATCA,0.0481
25,ATGAGTGA,-0.22

row,Sequence,PBM E-score
1,TCAACCCA,0.0865
2,AGGTAAGC,-0.114
3,CAGAAGTA,-0.143
4,CTCGGCTC,0.131
5,CATGGGGC,-0.0792
6,GCAGCCAA,0.0191
7,ATAACTAT,-0.0524
8,GGCATGAC,-0.197
9,TACTAATA,-0.0724
10,GCGCGCAC,0.267
11,CGGTGACG,-0.0532
12,CTCATCTC,0.0412
13,AACGCGAA,0.109
14,GTCGAGTA,-0.0107
15,GTTAGACA,0.0146
16,ACGCCGCC,0.0831
17,AGTGAGTA,0.00272
18,CACTTTTA,-0.168
19,AATGCGTG,-0.116
20,AATCCGGA,0.455
21,CGCCTCAA,-0.0363
22,CGTGTGTA,0.0958
23,CCGCTGAA,0.134
24,CCTGCTCA,-0.12
25,ACTACGAG,-0.148

row,Sequence,PBM E-score
1,GCCTTGAC,-0.0613
2,AAAAAGGT,-0.0428
3,AAGTAACA,0.0139
4,CTAGTAGC,-0.158
5,CCAGCGGC,0.0958
6,GCCCAGAA,-0.0633
7,CCTTAGCG,-0.125
8,AAGGTCTA,-0.0934
9,AATCGCAT,-0.0118
10,ATTGAAGC,-0.014
11,CCAACACA,-0.111
12,TATTTGAA,0.0114
13,ACTCATAC,0.126
14,CTTAGACA,-0.244
15,CAACTGGC,-0.117
16,CCTCCACC,-0.141
17,GAGATCGA,0.034
18,GCTGACCC,-0.0653
19,ACGATCAA,-0.159
20,ACGGAGCA,0.343
21,ACTTTACT,-0.137
22,AGTTATTC,0.0364
23,ATACAGTG,-0.129
24,ACTTGGTA,-0.15
25,CTGGGGAC,-0.192

row,Sequence,PBM E-score
1,GGGGTACC,-0.0641
2,AGTGGTTA,-0.112
3,AGGGTAGG,-0.0038
4,CCATACGC,-0.00666
5,AAGCCTTA,-0.178
6,GTCGTGCA,-0.0964
7,AAAGACTG,-0.367
8,GCGGCGAA,0.251
9,TAGTAGAA,0.0283
10,ATTGTAGA,-0.0569
11,GGGCTTAA,-0.187
12,ATGGATCC,0.295
13,GATTCGAC,0.00864
14,ATGGGGTA,0.0341
15,TCGGAAGA,0.359
16,GTACCAAA,0.0429
17,GGGTTGTA,-0.0802
18,CGAGGACG,0.123
19,AACCTCAA,-0.0891
20,CATATGCG,0.0754
21,GGCTCTTA,-0.117
22,GTCCGGTA,0.181
23,ATTTACCG,0.224
24,CGTATTTC,-0.0107
25,GGTAGAGA,-0.0811

row,Sequence,PBM E-score
1,AAATCGCG,0.0946
2,CAATACCA,-0.0109
3,TCTACTAA,0.00656
4,TGCGCGAA,0.163
5,TCCATCGA,0.00286
6,ATCTCGCG,0.188
7,GAGCACAC,-0.172
8,CTTCCAAG,-0.0526
9,GTTGCATA,-0.0128
10,GATCCCCA,-0.00094
11,CGAATCTA,-0.114
12,TGGCAGAA,-0.0306
13,CCCTGTTC,-0.00603
14,CAACTGGG,-0.063
15,AACATAAG,0.0625
16,CACTCAGG,-0.0441
17,AACCCACC,0.161
18,GACACCGA,-0.0206
19,AGCAGCTA,-0.0934
20,CCAATCGA,-0.063
21,GATACTTA,-0.0634
22,AGTCTCAG,-0.235
23,ATCTACTA,-0.00583
24,AAGCCATG,-0.12
25,ATGTTAAC,-0.0193

row,Sequence,PBM E-score
1,ACTGTTTA,-0.238
2,CGTAAATA,-0.0294
3,ATTTTCCG,0.432
4,ATTCGTTA,0.0334
5,AATCTTGA,-0.112
6,CGGACTGC,0.241
7,AATGCATG,0.149
8,ATTGAGCG,0.0113
9,GTCGATCA,-0.202
10,GCCCGGTA,0.102
11,GGTTTCAA,0.0896
12,ACTTTCTC,-0.0778
13,CGCCCGCA,0.174
14,CACGCTAA,-0.0591
15,AGTGCCTG,-0.0471
16,AGCATGCC,0.121
17,GGAAGTCA,0.225
18,GGGGTCAA,-0.0321
19,AAACGAGA,-0.0232
20,AATGCTTA,-0.284
21,GCTGCCCC,0.034
22,AGGCATGG,0.0628
23,ACCCATAA,0.0111
24,CAGTTAAC,0.0887
25,GCCCCCTA,-0.223

row,Sequence,PBM E-score
1,AGATCGAG,-0.0852
2,AACTAGAA,-0.0726
3,GTCAGGAC,-0.164
4,CCTAACCC,-0.284
5,ACGATGCT,-0.128
6,ATTTTCGA,-0.136
7,GATGTCCC,0.128
8,GCCTTAGC,-0.138
9,GTGGTCTA,-0.149
10,AATAGAAC,0.113
11,CAGTTGAC,0.00129
12,CCGCGCCA,0.144
13,GCGTTGAA,0.0302
14,AGCGCCCG,0.0616
15,ACACCGTC,-0.0357
16,CTAGTAGA,-0.0894
17,CACGGCCC,-0.0443
18,CTTGGGAA,-0.0131
19,ACCCAACG,-0.0946
